Experimental data reported in PubChem BioAssay AID1347073 (National Center for Advancing Translational Sciences (NCATS), 2019).
The campaign covered roughly 45,000 compounds. About 200 (0.44%) were called active. Not shown: some 7% with an inconclusive outcome. The call rests on the fitted dose curve; in most records, active means well fitted activation curve with a large enough effect; inconclusive means small, poorly fitted or top-dose-only effect; inactive means no such curve, though single readings can be large or run the other way. The list shows a part of the results.

experiment: qHTS of TDP-43 Inhibitors: NCGC Sytravon Library Screen; details: yeast TDP-43 toxicity rescue, BacTiter-Glo growth, 24 h; series mostly up to 46.1 µM; growth rescue (activation): at the top concentration; further: 0% is about no effect; nearly all actives have a fitted effect of over 55% in size
Method in brief: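 TDP-43-expressing yeast, pregrown in raffinose, seeded at OD600 0.02 in galactose medium with compound for 24 hr at 30 deg C. Growth read by BacTiter-Glo luminescence, so rescue of toxicity appears as activation.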

| SMILES | growth rescue (activation) |
| --- | --- |
| NS(=O)(=O)c1ccc(CCNC(=O)CSc2nc3ccsc3c(=O)n2CCCCCC(=O)O)cc1 | inactive: -6.38% |
| COc1ccc(CCCc2nnc(SCc3nc4ccccc4c(=O)[nH]3)n2C)cc1C | inactive: -12.6% |
| COc1ccccc1NC(=O)NNC(=O)c1ccc2c(c1)NC(=O)C(C)(C)O2 | inactive: -27.2% |
| CCN(C(=O)c1ccc2c(=O)n3c(nc2c1)CCCCC3)c1cc(C)ccc1C | inactive: 6.58% |
| COc1ccc(/C=N/NC(=O)c2ccc(O)cc2O)cc1CSc1ccccn1 | inactive: 11.1% |
| Cc1ccc(C2=NNC(C(O)C(O)C(O)CO)S2)cc1 (centres undefined) | inactive: 4.23% |
| COc1ccccc1CNCC(=O)Nc1cc(S(=O)(=O)N2CCCCCC2)ccc1Cl | inactive: -4.94% |
| CC(=O)c1cc(-c2ccccc2)n(CCC(=O)NC2CCCCCC2)c1C | inactive: -13.7% |
| COc1ccccc1N1CCN(S(=O)(=O)c2c(C)sc3ncn(CC(=O)NCCN(C)C)c(=O)c23)CC1 | inactive: 5.14% |
| Cc1cccc(NC(=O)C2CCN(C(=O)c3ccco3)CC2)c1C | inactive: -11% |
| CCC(c1nnnn1Cc1ccco1)N(Cc1cc2cc(OC)ccc2[nH]c1=O)C1CCCCC1 (centres undefined) | inactive: 16.1% |
| COc1ccc(C(=O)Nc2ccc(NC(=O)c3cccc(F)c3)cn2)cc1 | inactive: -9.39% |
| CC(C)(C)NC(=O)C(c1ccccc1)N(C(=O)CNC(=O)c1cccs1)c1cccnc1 (centres undefined) | inactive: 14.2% |
| O=C(CSc1nc2c(c(=O)[nH]1)CCC2)Nc1cccc(F)c1 | inactive: 11.4% |
| CC(C)(C)C(=O)Nc1ccc(-c2nc3ccccc3c(=O)o2)cc1 | inactive: 5.55% |
| CN(C)c1nc(SCC(=O)Nc2ccc(Cl)c(Cl)c2)nc(N2CCOCC2)n1 | inactive: 21.2% |
| CCN(CC)C(=O)c1sc2nc(-c3cccs3)cc(-c3ccc(Cl)cc3)c2c1N | inactive: 38.8% |
| COc1ccc(C2C([N+](=O)[O-])=C(C)N(C)C(=O)N2C)cc1OC (centres undefined) | inactive: 1.28% |
| CN1CCN(C(=O)c2cc(C(C)(C)C)cc(C(C)(C)C)c2)CC1 | inactive: 2.78% |
| O=C(CNS(=O)(=O)c1cccc(C(F)(F)F)c1)NC1CCCCCC1 | inactive: 3.89% |
| CCC(=O)Nc1ccccc1N1CCN(c2ccc(F)cc2)CC1 | inactive: 3.61% |
| CCn1c(CC(=O)Nc2ccccc2C)nnc1SCC(=O)NC1CCCC1 | inactive: 3.21% |
| CN(C)C(C)(C)/C=C/C(O)(c1ccccc1)c1ccccc1 | inactive: 5.79% |
| COc1cccc(CNC(=O)CCC2CCCN(Cc3cc4ccccc4o3)C2)c1 (centres undefined) | inactive: 6.55% |
| O=C(Nc1ccccc1C(F)(F)F)N1CCC2(CC1)Oc1ccccc1C(=O)N2Cc1ccccc1F | inactive: 0.962% |
| COc1ccc(-c2nnc(NC(=O)CSc3ccccc3)s2)cc1OC | inactive: -25.9% |

| SMILES | growth rescue (activation) |
| --- | --- |
| Cc1ccc(CN2CCN(Cc3cccn3-c3ccc(Cl)cn3)CC2CCO)o1 (centres undefined) | inactive: 2.19% |
| Cc1ccc(S(=O)(=O)N2CCN(Cc3ccco3)CC2)c(C)c1 | inactive: 16.7% |
| COc1ccc(CN(C)C(=O)CC(c2ccccc2)c2ccccc2)cc1 | inactive: 13% |
| CCOc1cc2[nH]c(=S)n(Cc3ccc(C(=O)NCCN(CC)CC)cc3)c(=O)c2cc1OCC | inactive: 15.9% |
| OCC1(Cc2ccccc2)CCCN(Cc2cn[nH]c2-c2ccccc2)C1 (centres undefined) | inactive: -27.2% |
| CC(C)c1ccc(S(=O)(=O)N2CCN(C(=O)CN3C(=O)c4ccccc4C3=O)CC2)cc1 | inactive: 13.3% |
| COc1ccc(C(=O)CSc2n[nH]c(C)n2)cc1[N+](=O)[O-] | inactive: -4.25% |
| COc1ccc(NC(=O)Cc2c[nH]c3ccccc23)cc1S(=O)(=O)N1CCOCC1 | inactive: 26.7% |
| O=C(COC(=O)/C=C/c1cccc(F)c1)Nc1cccc(S(=O)(=O)NC2=NCCCCC2)c1 | inactive: 1.93% |
| O=C(N/N=C/c1ccc(Br)s1)c1ccco1 | inactive: 20.3% |
| O=C(N/N=C\c1ccc(CNS(=O)(=O)c2ccccc2)o1)C(=O)Nc1ccc(F)cc1 | inactive: 8.83% |
| O=[N+]([O-])c1c(Nc2ccccc2O)cc(Cl)c2nonc12 | inactive: -26.2% |
| Cc1ccc(S(=O)(=O)N2CCCCC2)cc1NC(=O)COC(=O)c1ccccc1F | inactive: 12.2% |
| Cc1cccc(NC(=O)Nc2c(C)n(C)n(-c3ccccc3)c2=O)c1 | inactive: -9.77% |
| Cc1c(NC(=O)CN2C(=O)NC(C)(c3ccc4c(c3)OCCO4)C2=O)c(=O)n(-c2ccccc2)n1C (centres undefined) | inactive: 1.39% |
| C/C(=N\NC(=O)c1cccnc1)c1nnn(-c2nonc2N)c1C | inactive: -1.04% |
| O=C(CSc1ccc(Cl)cc1)Nc1ccccc1N1CCN(C(=O)c2ccccc2)CC1 | inactive: 3.77% |
| O=c1cc(-c2ccc([N+](=O)[O-])cc2)nc2cc(-c3ccc(F)cc3)[nH]n12 | inactive: -12.1% |
| O=C(Cn1cccn1)N1CCCC(N2CCN(c3ccccc3F)CC2)C1 (centres undefined) | inactive: 7.21% |
| N/C(=N\N=C\c1ccc2c(c1)OCO2)SC1CC(=O)N(c2ccc(C(=O)O)cc2)C1=O (centres undefined) | inactive: 3.87% |
| CCc1cccc2c(C(=O)C(NCCOC)c3ccccc3)c[nH]c12 (centres undefined) | inactive: -1.01% |
| O=C(NC1CCCC1)c1cc(-c2ccccc2O)on1 | inactive: -3.95% |
| Cc1noc(C)c1COc1ccc(C(=O)NCc2cccs2)cc1 | inactive: 0.857% |
| Cc1ccccc1-n1c(C)cc(/C=C(\C#N)C(=O)NCC2CCCO2)c1C (centres undefined) | inactive: 23.6% |
| COc1ccc(OC)c(N/C=C/C(=O)c2ccccc2)c1 | inactive: -27% |
| CNS(=O)(=O)c1cc(NC(=O)c2cccc3cccnc23)ccc1C | inactive: 6.26% |

| SMILES | growth rescue (activation) |
| --- | --- |
| COc1ccc(-c2cc(CNc3nc4cc(-c5ccccc5C)sc4c(=O)n3C)on2)cc1 | inactive: 5.85% |
| Cn1c(N)c(C(=O)COC(=O)COc2ccccc2Cl)c(=O)n(C)c1=O | inactive: 14.2% |
| COc1ccc(NC(=O)CCc2nc3ccccc3[nH]2)cc1 | inactive: 12.2% |
| Clc1cccc(-c2cc3nc(NCCOc4ccccc4)ccn3n2)c1 | inactive: -13% |
| N#C/C(=C/c1ccc(O)c([N+](=O)[O-])c1)C(=O)Nc1ccccc1 | inactive: -4.73% |
| CCOc1ccccc1/C=C/C(=O)N1CCN(C(=O)c2ccco2)CC1 | inactive: 22.1% |
| O=C(CP(=O)(O)CC(=O)c1ccccc1)c1ccccc1 | inactive: -2.54% |
| COc1cc(C)c(C)cc1S(=O)(=O)NC1CC(C)(C)NC(C)(C)C1 | inactive: -13.4% |
| CCC1CCCCN1C(=O)Cn1c(=O)n(CCCCCC(=O)NCc2ccccc2Cl)c(=O)c2sccc21 (centres undefined) | inactive: 3.18% |
| Cc1ccc(S(=O)(=O)N(C)/N=C/c2ccc(N(C)C)cc2)cc1 | inactive: 12.5% |
| COc1cc(N)c(Cl)cc1C(=O)OCC(=O)c1cccs1 | inactive: 2.02% |
| O=S(c1ccc2ccccc2c1)c1cnns1 (centres undefined) | inactive: 27.5% |
| O=C(N/N=C/c1ccc(Cl)cc1Cl)C(=O)NC1CC1 | inactive: 12.4% |
| CC(=O)Nc1cc2nc(C)n(Cc3ccccc3)c2nc1C | inactive: 5.98% |
| O=C(c1ccccc1)c1cn[nH]c1-c1ccccc1O | inactive: 5.12% |
| O=C(c1nn2c(C(F)(F)F)cc(-c3cccs3)nc2c1Cl)N1CCCc2ccccc21 | inactive: 2.12% |
| BrC(=C\c1ccccc1)/C=N/Nc1ccc2nncn2n1 | inactive: 7.85% |
| O=C(NCC1CCCO1)C1CCN(C2CCN(C3CCCCCC3)CC2)CC1 (centres undefined) | inactive: 5.59% |
| Cc1ccc(OCC(=O)Nc2ccc(S(=O)(=O)N3CCOCC3)cc2)c(C)c1 | inactive: 14.8% |
| O=C(Nc1ccc(O)c(-c2nc3ccccc3o2)c1)C1(c2ccc([N+](=O)[O-])cc2)CCCC1 | inactive: 24.9% |
| Cc1ccn2c(Nc3ccccc3C)c(-c3cccnc3)nc2c1 | inactive: -5.55% |
| COc1ccc2cc(C(=O)C3CCCN(C(=O)CSc4nnc(C)o4)C3)ccc2c1 (centres undefined) | inactive: 23% |
| COc1ccc(NS(=O)(=O)c2ccc3c(c2)NC(=O)CO3)cc1 | inactive: -3.6% |
| O=C1c2cccc3cccc(c23)C(=O)N1CCc1ccccc1 | inactive: 3.97% |
| CNS(=O)(=O)c1cc(NC(=O)CCCNC(=O)c2ccc(Cl)cc2)ccc1C | inactive: -6.56% |
| CCN(CC)S(=O)(=O)c1cc(C(=O)N2CCc3ccccc32)ccc1Cl | inactive: 5.98% |

| SMILES | growth rescue (activation) |
| --- | --- |
| CC(c1nc2ccccc2c(=O)[nH]1)N1CCOCC1 (centres undefined) | inactive: 6.4% |
| O=C(NC1CCCCC1)C(=S)NCCc1ccccc1 | inactive: 2.43% |
| O=C1C(=O)N(Cc2ccco2)C(c2cccc(Cl)c2)/C1=C(\O)c1ccc2c(c1)OCCO2 (centres undefined) | inactive: 6.08% |
| O=C(CN1CCOCC1)NN=C1CCCCCCCCCCC1 | inactive: -14.4% |
| CCN(Cc1nc(-c2ccc(OC)c(OC)c2)no1)C(=O)c1ccoc1C | inactive: 4.17% |
| CCOc1ccc(C2/C(=C(\O)c3cccc(OC)c3)C(=O)C(=O)N2c2ccccn2)cc1OC (centres undefined) | inactive: -20.6% |
| Cc1c(C(=O)N(C)Cc2cccc(F)c2)oc2c(Cl)cccc12 | inactive: 19.1% |
| O=C(NC1CCCCC1)c1ccc2c(c1)OCO2 | inactive: 10.3% |
| COc1ccc(/C=C2\SC(=S)N(NC(=O)c3csc4c3CCCC4)C2=O)cc1 | inactive: 31.4% |
| CCC1CCC(NC(=O)Nc2cccc(OC)c2)CC1 (centres undefined) | inactive: 7.21% |
| Cc1cc(=O)[nH]c(SCC(=O)NC2CCCCCC2)n1 | inactive: -1.26% |
| Cc1ccc(C(=O)Nc2nnc([C@H]3C[C@H](O)[C@@H](CO)O3)s2)cc1 | inactive: -1.47% |
| CN(Cc1cccs1)C(=O)CN1CCN(S(=O)(=O)c2ccc3c(c2)OCCCO3)CC1 | inactive: 9.75% |
| O=C(O)Cn1cc(/C=C2\SC(=O)N(c3ccccc3)C2=O)c2ccccc21 | inactive: 5.54% |
| COc1cc(/C=C/c2cc[n+](C)cc2)ccc1OCC(=O)Nc1ccccc1 | inactive: -4.24% |
| Cc1ccccc1OCC(O)CN(Cc1ccccc1O)C1CCCCC1 (centres undefined) | inactive: 10.3% |
| Cc1cc(OCC(=O)Nc2ccncc2)ccc1Br | inactive: 16.3% |
| COc1ccccc1-n1c(/C=C/c2c(C)n(C)c3ccccc23)nc2ccccc2c1=O | inactive: 2.23% |
| COc1cc(S(=O)(=O)Nc2cc(C)cc(C)c2)ccc1F | inactive: 2.8% |
| Cc1nc2sc3c(c2c(=O)[nH]1)CCCCC3 | inactive: 28.1% |
| CCc1nc2ccc(C(=O)N3CCN(C(=O)c4ccco4)CC3)cn2c1N(C)Cc1nccn1C | inactive: -1.96% |
| CCN(CC)S(=O)(=O)c1ccc(F)c(C(=O)OC2CC(C)OC2=O)c1 (centres undefined) | inactive: 3.82% |
| COc1cc(C=C(c2nc3ccccc3s2)c2nc3ccccc3s2)ccc1O | inactive: 34.7% |
| CC(C(=O)NCCc1ccc(S(N)(=O)=O)cc1)N1C(=O)CC(C)(C)Sc2ccccc21 (centres undefined) | inactive: 3.44% |
| CCc1nnc(NC(=O)C2CCN(C(=O)c3ccco3)CC2)s1 | inactive: 4.7% |
| CCOC(=O)c1sc(N/N=C/c2ccccc2)nc1C | inactive: 11.7% |
